Test results from PMC4336329 (PLoS ONE, 2015).
Hit rate of the full screen: of about 310,000 compounds, about 14,000 (4.5%) showed an effect of 50% or more. Effects have a minus sign here. The list shows a part of the results.

biological target: human ether-à-go-go-related gene (hERG) potassium channel (human, UniProt Q12809); test: primary screen, population patch clamp on CHO cells stably expressing hERG
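Also: peak tail current of the secondary pulse compared with the same well before compound.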

human ether-à-go-go-related gene (hERG) potassium channel, sequence (Q12809 whole entry, looked up): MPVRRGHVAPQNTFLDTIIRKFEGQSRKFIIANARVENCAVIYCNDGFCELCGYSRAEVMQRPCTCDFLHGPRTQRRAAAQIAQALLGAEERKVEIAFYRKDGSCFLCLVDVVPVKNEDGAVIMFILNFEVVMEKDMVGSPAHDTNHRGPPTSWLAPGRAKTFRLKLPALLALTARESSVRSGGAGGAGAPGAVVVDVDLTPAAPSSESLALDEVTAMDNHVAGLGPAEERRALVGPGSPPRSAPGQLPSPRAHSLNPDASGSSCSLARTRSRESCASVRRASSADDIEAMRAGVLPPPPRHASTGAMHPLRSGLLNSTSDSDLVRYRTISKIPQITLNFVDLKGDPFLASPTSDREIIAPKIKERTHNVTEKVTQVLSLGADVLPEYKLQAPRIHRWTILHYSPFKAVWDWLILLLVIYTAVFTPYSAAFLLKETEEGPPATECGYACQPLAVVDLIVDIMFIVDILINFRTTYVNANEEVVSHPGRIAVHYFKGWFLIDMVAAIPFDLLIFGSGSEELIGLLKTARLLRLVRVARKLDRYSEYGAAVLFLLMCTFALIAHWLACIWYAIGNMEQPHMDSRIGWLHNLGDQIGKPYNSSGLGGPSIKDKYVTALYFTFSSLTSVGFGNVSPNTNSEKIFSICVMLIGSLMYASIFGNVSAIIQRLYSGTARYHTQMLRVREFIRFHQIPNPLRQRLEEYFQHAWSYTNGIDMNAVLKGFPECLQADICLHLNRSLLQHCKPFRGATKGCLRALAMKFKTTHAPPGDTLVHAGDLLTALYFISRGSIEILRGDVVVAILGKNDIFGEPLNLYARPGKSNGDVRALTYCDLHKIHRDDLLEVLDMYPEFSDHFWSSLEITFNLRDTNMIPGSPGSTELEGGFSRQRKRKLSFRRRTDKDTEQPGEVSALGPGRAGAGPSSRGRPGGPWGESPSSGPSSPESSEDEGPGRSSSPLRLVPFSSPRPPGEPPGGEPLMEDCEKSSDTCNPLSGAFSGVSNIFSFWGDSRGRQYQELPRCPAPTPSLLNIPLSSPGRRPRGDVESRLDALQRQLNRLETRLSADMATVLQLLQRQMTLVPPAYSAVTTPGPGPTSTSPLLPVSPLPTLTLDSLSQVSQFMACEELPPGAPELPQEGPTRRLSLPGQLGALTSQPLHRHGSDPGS

Compound	hERG current change (%, negative = inhibition) at 10uM [%]
Cc1cccc(C)c1NC(=O)N1CC(C)OC(C)C1 (stereo not shown)	39
O=C(Cn1c(=O)n(-c2ccc(F)cc2)c(=O)c2sccc21)N1CCCC1	-0.0328
COc1ccccc1Cn1c(=S)[nH]c2cc(C(=O)NCCN(C)C)ccc2c1=O	-4.42
Cc1cc2cc(CN(CCN(C)C)C(=S)NCc3ccco3)c(=O)[nH]c2cc1C	-43.8
Cc1c(C)n(C)c2ccc(C(=O)NCCc3ccco3)cc12	-4.88
Cc1ccc(C(=O)NC(=S)N(C)Cc2ccccc2)cc1	17.3
O=C(Cc1ccccc1)NCC1CCCO1 (stereo not shown)	2.17
CCCn1c(=O)c2ccccc2n2c(SCc3nnc(-c4ccccc4Br)o3)nnc12	-0.727
COC(=O)CC1=NN(c2nc3ccccc3s2)C(=O)/C1=C/N(C)C	-18.4
O=C(CC1C(=O)NCCN1Cc1cccc(Oc2ccccc2)c1)NCCc1ccccn1 (stereo not shown)	1.32
Cc1ccc(C(=O)N2CCC(C(N)=O)CC2)cc1C	2.63
Oc1ccc(/C=C/c2cnccn2)cc1	6.91
COc1ccc(N/C=C/C(=C(C#N)C#N)N(C)C)cc1	14.5
COc1ccc(N=C(N)SCc2ccccn2)cc1.Cl	-30.9
CCc1noc(C)c1C(=O)Nc1nnc(C(CC)CC)s1	-16.9
O=C(Cc1cc(=O)[nH][nH]1)N/N=C/c1c(Cl)cccc1Cl	15.9
COc1ccc(/C=N\NC(=O)c2ccccc2)cc1COc1ccccc1	20.6
CN(C)CCCn1c2c(c(SCC(=O)Nc3nccs3)nc1=O)CCC2	-9.32
Cc1cc(C(=O)OCC(=O)Nc2ccc(F)c(F)c2)c(C)o1	14.7
CC12CCC(C(=O)Nc3ccccc3Cl)([C@H](Br)C1=O)C2(C)C (stereo partly shown)	15.9
COc1ccc(OC)c(C(=O)CSc2nccc(-c3ccc(Br)cc3)n2)c1	3.37
Cn1c(-n2c(CCCN3C(=O)c4ccccc4C3=O)nc3ccccc3c2=O)nc2ccccc21	-12.4
N#C/C(=C(/O)c1ccc(C(=O)c2ccccc2)cc1)c1nc2ccccc2[nH]1	2.95
O=C(O)C1CCN(S(=O)(=O)N2CCOCC2)CC1	-3.68
COc1ccc(CNC(=O)CN(C(=O)CCC(=O)Nc2nccs2)c2cccc(C)c2)cc1	33.3
